# Results reported in the supplement of paper PMC8728848.
# This is one part of the list.
# B1: LTL (Lotus tetragonolobus), P19664 (protein)
# chain: VSFNYTEFKDDGSLILQGDAKIWTDGRLAMPTDPLVNNPKTTRSAGRALYATPVPIWDSATGNVASFVTSFNFLFVIRELKYTPTDGLVFFLAPVGTEIPSGSTGGFLGIFDGSNGFNQFVAVEFDSYHNIWDPKSLRSSHVGIDVNSIMSLKAVNWNRVSGSLEKATIIYDSQTNILSVVMTSQNGQITTIYGTIDLKTVLPEKVSVGFSATTGNPEREKHDIYSWSFTSTLKEPEEQA
# Legend:
# Experiment in all cases: glycan array binding signal (z-score within array); higher = stronger binding
# Conditions in all cases: glycan notation: IUPAC condensed, linker removed
# [1] = biological target: Neu5Ac(a2-6)Gal(b1-4)GlcNAc6S
# Summary of the method: (§1)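 The Consortium for Functional Glycomics database supplied 3228 glycan arrays, of which those lacking an available protein sequence were dropped. The binding signal, a within-array Z-score, was averaged across arrays of the same protein sequence and across linkers. Negative scores can be read as non-binding.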
# Neu5Ac(a2-6)GalNAc = biological target: Neu5Ac(a2-6)GalNAc
# Summary of the method: as §1
# [2] = biological target: Neu5Ac(a2-6)GalNAc(b1-4)GlcNAc
# Summary of the method: as §1
# [3] = biological target: Neu5Ac(a2-6)GalNAc(b1-4)GlcNAc6S
# Summary of the method: as §1
# [4] = biological target: Neu5Ac(a2-6)GlcNAc(b1-4)GlcNAc
# Summary of the method: as §1
# [5] = biological target: Neu5Ac(a2-6)GlcNAc(b1-4)GlcNAc(b1-4)GlcNAc
# Summary of the method: as §1
# Neu5Ac(a2-8)Neu5Ac = biological target: Neu5Ac(a2-8)Neu5Ac
# Summary of the method: as §1
# [6] = biological target: Neu5Ac(a2-8)Neu5Ac(a2-3)Gal(b1-3)GalNAc(b1-4)[Neu5Ac(a2-3)]Gal(b1-4)Glc
# Summary of the method: as §1
# [7] = biological target: Neu5Ac(a2-8)Neu5Ac(a2-3)Gal(b1-3)GalNAc(b1-4)[Neu5Ac(a2-8)Neu5Ac(a2-3)]Gal(b1-4)Glc
# Summary of the method: as §1
# [8] = biological target: Neu5Ac(a2-8)Neu5Ac(a2-3)Gal(b1-4)Glc
# Summary of the method: as §1
# [9] = biological target: Neu5Ac(a2-8)Neu5Ac(a2-3)Gal(b1-4)GlcNAc
# Summary of the method: as §1
# [10] = biological target: Neu5Ac(a2-8)Neu5Ac(a2-3)[Gal(b1-3)GalNAc(b1-4)]Gal(b1-4)Glc
# Summary of the method: as §1
# [11] = biological target: Neu5Ac(a2-8)Neu5Ac(a2-3)[GalNAc(b1-4)]Gal(b1-4)Glc
# Summary of the method: as §1
# [12] = biological target: Neu5Ac(a2-8)Neu5Ac(a2-8)Neu5Ac
# Summary of the method: as §1
# [13] = biological target: Neu5Ac(a2-8)Neu5Ac(a2-8)Neu5Ac(a2-3)Gal(b1-4)Glc
# Summary of the method: as §1
# [14] = biological target: Neu5Ac(a2-8)Neu5Ac(a2-8)Neu5Ac(a2-3)[Gal(b1-3)GalNAc(b1-4)]Gal(b1-4)Glc
# Summary of the method: as §1
# [15] = biological target: Neu5Ac(a2-8)Neu5Ac(a2-8)Neu5Ac(a2-3)[GalNAc(b1-4)]Gal(b1-4)Glc
# Summary of the method: as §1
# [16] = biological target: Neu5Ac(a2-8)Neu5Ac(a2-8)Neu5Ac(a2-8)Neu5Ac(a2-3)[GalNAc(b1-4)]Gal(b1-4)Glc
# Summary of the method: as §1
# [17] = biological target: Neu5Ac(a2-8)Neu5Gc(a2-3)Gal(b1-4)GlcNAc
# Summary of the method: as §1
# Neu5Ac(b1-6)GalNAc = biological target: Neu5Ac(b1-6)GalNAc
# Summary of the method: as §1
# [18] = biological target: Neu5Ac(b2-6)Gal(b1-4)GlcNAc
# Summary of the method: as §1
# Neu5Ac(b2-6)GalNAc = biological target: Neu5Ac(b2-6)GalNAc
# Summary of the method: as §1
# [19] = biological target: Neu5Ac9Ac(a2-3)Gal(b1-3)GlcNAc
# Summary of the method: as §1
# [20] = biological target: Neu5Ac9Ac(a2-3)Gal(b1-4)GlcNAc
# Summary of the method: as §1
# [21] = biological target: Neu5Ac9Ac(a2-6)Gal(b1-4)GlcNAc
# Summary of the method: as §1
# [22] = biological target: Neu5Gc(a2-3)Gal(b1-3)GlcNAc
# Summary of the method: as §1
# [23] = biological target: Neu5Gc(a2-3)Gal(b1-3)[Fuc(a1-4)]GlcNAc
# Summary of the method: as §1
# Neu5Gc(a2-3)Gal(b1-4)Glc = biological target: Neu5Gc(a2-3)Gal(b1-4)Glc
# Summary of the method: as §1
# [24] = biological target: Neu5Gc(a2-3)Gal(b1-4)GlcNAc
# Summary of the method: as §1
# [25] = biological target: Neu5Gc(a2-3)Gal(b1-4)GlcNAc(b1-3)Gal(b1-4)GlcNAc(b1-2)Man(a1-3)[Neu5Gc(a2-3)Gal(b1-4)GlcNAc(b1-3)Gal(b1-4)GlcNAc(b1-2)Man(a1-6)]Man(b1-4)GlcNAc(b1-4)GlcNAc
# Summary of the method: as §1
# [26] = biological target: Neu5Gc(a2-3)Gal(b1-4)[Fuc(a1-3)]GlcNAc
# Summary of the method: as §1
# [27] = biological target: Neu5Gc(a2-3)Gal(b1-4)[Fuc(a1-4)]GlcNAc
# Summary of the method: as §1
# [28] = biological target: Neu5Gc(a2-6)Gal(b1-4)GlcNAc
# Summary of the method: as §1
# Neu5Gc(a2-6)GalNAc = biological target: Neu5Gc(a2-6)GalNAc
# Summary of the method: as §1
# [29] = biological target: Neu5Gc(a2-8)Neu5Ac(a2-3)Gal(b1-4)GlcNAc
# Summary of the method: as §1
# [30] = biological target: Neu5Gc(a2-8)Neu5Gc(a2-3)Gal(b1-4)GlcNAc
# Summary of the method: as §1
# [31] = biological target: Neu5Gc(a2-8)Neu5Gc(a2-3)Gal(b1-4)GlcNAc(b1-3)Gal(b1-4)GlcNAc
# Summary of the method: as §1
# [32] = biological target: Neu5Gc(a2-8)Neu5Gc(a2-6)Gal(b1-4)GlcNAc
# Summary of the method: as §1
# [33] = biological target: Neu5Gc(b2-6)Gal(b1-4)GlcNAc
# Summary of the method: as §1
binder,measurement,setting,value
B1,glycan array binding signal (z-score),[1],-0.256
same,glycan array binding signal (z-score),Neu5Ac(a2-6)GalNAc,-0.349
same,glycan array binding signal (z-score),[2],-0.299
same,glycan array binding signal (z-score),[3],-0.327
same,glycan array binding signal (z-score),[4],-0.268
same,glycan array binding signal (z-score),[5],-0.082
same,glycan array binding signal (z-score),Neu5Ac(a2-8)Neu5Ac,-0.069
same,glycan array binding signal (z-score),[6],-0.472
same,glycan array binding signal (z-score),[7],-0.211
same,glycan array binding signal (z-score),[8],-0.262
same,glycan array binding signal (z-score),[9],-0.398
same,glycan array binding signal (z-score),[10],-0.265
same,glycan array binding signal (z-score),[11],-0.338
same,glycan array binding signal (z-score),[12],-0.193
same,glycan array binding signal (z-score),[13],-0.267
same,glycan array binding signal (z-score),[14],0.131
same,glycan array binding signal (z-score),[15],0.153
same,glycan array binding signal (z-score),[16],0.037
same,glycan array binding signal (z-score),[17],-0.455
same,glycan array binding signal (z-score),Neu5Ac(b1-6)GalNAc,-0.326
same,glycan array binding signal (z-score),[18],-0.162
same,glycan array binding signal (z-score),Neu5Ac(b2-6)GalNAc,-0.262
same,glycan array binding signal (z-score),[19],-0.279
same,glycan array binding signal (z-score),[20],0.203
same,glycan array binding signal (z-score),[21],-0.401
same,glycan array binding signal (z-score),[22],-0.203
same,glycan array binding signal (z-score),[23],-0.342
same,glycan array binding signal (z-score),Neu5Gc(a2-3)Gal(b1-4)Glc,-0.061
same,glycan array binding signal (z-score),[24],-0.225
same,glycan array binding signal (z-score),[25],-0.032
same,glycan array binding signal (z-score),[26],-0.19
same,glycan array binding signal (z-score),[27],-0.006
same,glycan array binding signal (z-score),[28],0.117
same,glycan array binding signal (z-score),Neu5Gc(a2-6)GalNAc,0.099
same,glycan array binding signal (z-score),[29],-0.207
same,glycan array binding signal (z-score),[30],-0.326
same,glycan array binding signal (z-score),[31],-0.15
same,glycan array binding signal (z-score),[32],-0.252
same,glycan array binding signal (z-score),[33],0.212
